Sequences with one replicate were seen in a single cluster, so their values are uncertain.
Tested on: ATP
Assay: switch fluorescence ratio, 500 uM ATP over buffer (Cy3 cluster intensity, sum of 5 cycles each) (fold (ratio)); higher = stronger signal-on switching upon ATP binding
Conditions: aptamer strand: ATP DNA aptamer (quencher-CACCTGGGGGAGTATTGCGGAGGAAGG + anchor), 100 nM annealed; ATP concentration: 500 uM; one replicate
Procedure, shortened: (§1)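 Values give the fluorescence ratio for each switch-domain sequence, averaged from per-cluster ratios of summed target-cycle to summed buffer-cycle Cy3 intensity. The Cy3-labelled switching-strand clusters sat on a modified Illumina MiSeq flow-cell, were annealed to 100 nM quencher-labelled ATP aptamer, and were imaged in selection buffer, then after 15 min with 500 uM ATP at 22 °C. Five cycles ran with NaOH stripping and re-annealing between them, and clusters outside 100-1000 RFU were excluded.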
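Note: ATP exposure 15 min at 22 °C before imaging.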

Q: Which switch fluorescence ratio does the source give for “TCGTCGGCAGCGTCAGATGTGTATAAGAGACAGTTTTTTTTTTTTTTTTTTTTTTTTTTGTTC” here?
A: 0.964

Tested on: ATP
Assay: switch fluorescence ratio, 500 uM ATP over buffer (Cy3 cluster intensity, sum of 5 cycles each) (fold (ratio)); higher = stronger signal-on switching upon ATP binding; sequences stand for … in TCGTCGGCAGCGTCAGATGTGTATAAGAGACAGTTTTTTTTTTTTTTTTTTTTTTTTT…TC
Conditions: aptamer strand: ATP DNA aptamer (quencher-CACCTGGGGGAGTATTGCGGAGGAAGG + anchor), 100 nM annealed; ATP concentration: 500 uM; one replicate
Procedure, shortened: as §1

Q: With TTTGAAGGCG as the sequence, how does the switch fluorescence ratio read?
A: 0.991

Q: For TTTGAAGTGC, which switch fluorescence ratio is on record?
A: 1.41

Q: TTTGACAACA was tested. Which switch fluorescence ratio did it give?
A: 1.02

Q: TTTGACAGTT was tested. Which switch fluorescence ratio did it give?
A: 0.999

Q: For TTTGAGA, which switch fluorescence ratio is on record?
A: 0.993

Q: How did the switch fluorescence ratio turn out when TTTGATTCAA was run?
A: 0.995

Q: With TTTGCCACTC as the sequence, how does the switch fluorescence ratio read?
A: 0.94

Q: TTTGCCTAAA was tested. Which switch fluorescence ratio did it give?
A: 0.974

Q: With TTTGCGAGAT as the sequence, how does the switch fluorescence ratio read?
A: 0.987

Q: How did the switch fluorescence ratio turn out when TTTGCGATGT was run?
A: 1

Q: Which switch fluorescence ratio does the source give for TTTGCGTCA here?
A: 1.01

Q: For TTTGCGTTCT, which switch fluorescence ratio is on record?
A: 0.921

Q: For TTTGCTACCA, which switch fluorescence ratio is on record?
A: 1.1

Q: Which switch fluorescence ratio does the source give for TTTGCTACCG here?
A: 0.962

Q: Which switch fluorescence ratio does the source give for TTTGCTAGCA here?
A: 0.997

Q: How did the switch fluorescence ratio turn out when TTTGCTTCGG was run?
A: 1.01

Q: With TTTGGAACAA as the sequence, how does the switch fluorescence ratio read?
A: 1.02

Q: TTTGGAACGA was tested. Which switch fluorescence ratio did it give?
A: 0.948

Q: Which switch fluorescence ratio does the source give for TTTGGAGCAT here?
A: 1.45

Q: Which switch fluorescence ratio does the source give for TTTGGCATAG here?
A: 1.05

Q: TTTGGCGCTC was tested. Which switch fluorescence ratio did it give?
A: 1

Q: How did the switch fluorescence ratio turn out when TTTGGCTAGG was run?
A: 0.973

Q: TTTGGGAAAC was tested. Which switch fluorescence ratio did it give?
A: 1.01

Q: TTTGGGAAG was tested. Which switch fluorescence ratio did it give?
A: 1.02

Q: With TTTGGGCGG as the sequence, how does the switch fluorescence ratio read?
A: 0.981

Q: For TTTGGGGTGA, which switch fluorescence ratio is on record?
A: 0.918

Q: How did the switch fluorescence ratio turn out when TTTGGGTTGT was run?
A: 1.04

Q: TTTGGGTTTA was tested. Which switch fluorescence ratio did it give?
A: 0.97

Q: How did the switch fluorescence ratio turn out when TTTGTAAG was run?
A: 0.975

Q: Which switch fluorescence ratio does the source give for TTTGTAGAAT here?
A: 1.01

Q: TTTGTAGCGT was tested. Which switch fluorescence ratio did it give?
A: 1.07

Q: For TTTGTAGTAG, which switch fluorescence ratio is on record?
A: 0.932

Q: With TTTGTATGCG as the sequence, how does the switch fluorescence ratio read?
A: 1.01

Q: TTTGTATGTC was tested. Which switch fluorescence ratio did it give?
A: 1.04

Q: TTTGTATGTG was tested. Which switch fluorescence ratio did it give?
A: 0.984

Q: How did the switch fluorescence ratio turn out when TTTGTCACTC was run?
A: 1.05

Q: Which switch fluorescence ratio does the source give for TTTGTCCCCA here?
A: 1.59

Q: TTTGTCGAGA was tested. Which switch fluorescence ratio did it give?
A: 0.961

Q: How did the switch fluorescence ratio turn out when TTTGTCGTCC was run?
A: 0.987

Q: How did the switch fluorescence ratio turn out when TTTGTCTTCA was run?
A: 0.985

Q: For TTTGTGAAAT, which switch fluorescence ratio is on record?
A: 1.01

Q: With TTTGTGACGG as the sequence, how does the switch fluorescence ratio read?
A: 1.03

Q: TTTGTGCTCT was tested. Which switch fluorescence ratio did it give?
A: 0.984

Q: How did the switch fluorescence ratio turn out when TTTGTGGTGC was run?
A: 0.971

Q: With TTTGTTACCA as the sequence, how does the switch fluorescence ratio read?
A: 1.05

Q: TTTGTTGCAC was tested. Which switch fluorescence ratio did it give?
A: 0.979

Q: How did the switch fluorescence ratio turn out when TTTTAAAGCC was run?
A: 1.01

Q: How did the switch fluorescence ratio turn out when TTTTAATGG was run?
A: 1.02

Q: With TTTTACTAAT as the sequence, how does the switch fluorescence ratio read?
A: 1.01

Q: Which switch fluorescence ratio does the source give for TTTTAGATG here?
A: 1.02

Q: How did the switch fluorescence ratio turn out when TTTTATGCAG was run?
A: 0.969

Q: With TTTTCCATTC as the sequence, how does the switch fluorescence ratio read?
A: 0.989

Q: Which switch fluorescence ratio does the source give for TTTTCCGCCA here?
A: 1.97

Q: TTTTCGAGCG was tested. Which switch fluorescence ratio did it give?
A: 0.99

Q: For TTTTCGATGA, which switch fluorescence ratio is on record?
A: 0.985

Q: With TTTTCGCCCA as the sequence, how does the switch fluorescence ratio read?
A: 1

Q: With TTTTCGCCCT as the sequence, how does the switch fluorescence ratio read?
A: 1.01

Q: How did the switch fluorescence ratio turn out when TTTTCGTCGC was run?
A: 1.01

Q: Which switch fluorescence ratio does the source give for TTTTCTAAA here?
A: 1.03

Q: With TTTTCTTTCG as the sequence, how does the switch fluorescence ratio read?
A: 1

Q: For TTTTCTTTGA, which switch fluorescence ratio is on record?
A: 1.02

Q: For TTTTGAAGAC, which switch fluorescence ratio is on record?
A: 0.985

Q: For TTTTGACGT, which switch fluorescence ratio is on record?
A: 1.03

Q: How did the switch fluorescence ratio turn out when TTTTGCTAAC was run?
A: 1.02

Q: How did the switch fluorescence ratio turn out when TTTTGGGG was run?
A: 0.998

Q: How did the switch fluorescence ratio turn out when TTTTGTGCAT was run?
A: 1.22

Q: How did the switch fluorescence ratio turn out when TTTTTATTAC was run?
A: 1.03

Q: With TTTTTCCGAC as the sequence, how does the switch fluorescence ratio read?
A: 1.15

Q: With TTTTTCTTCC as the sequence, how does the switch fluorescence ratio read?
A: 1.58

Q: Which switch fluorescence ratio does the source give for TTTTTGGTT here?
A: 1.03

Q: Which switch fluorescence ratio does the source give for TTTTTTGAA here?
A: 0.981

— the supplement of paper PMC10126150
